Where “and” joins values, the source holds several entries; their conditions need not be identical. Identical values can stand only once. The whole screen tested about 420,000 compounds, of which about 50,000 (12%) were called active. This list was built around the results that the source calls inconclusive (neither active nor inactive); the mix of calls is not that of the screen. The call rests on the fitted dose curve; in most records, active means well fitted inhibition curve with a large enough effect; inconclusive means small, poorly fitted or top-dose-only effect; inactive means flat fitted curve, though single readings scatter. Potencies beside an inconclusive call are fits to weak or partial responses and may not hold up.
Experiment: qHTS for Inhibitors of human tyrosyl-DNA phosphodiesterase 1 (TDP1): qHTS in cells in presence of CPT; further: nearly all actives have a fitted effect of over 55% in size
Details: chicken DT40 Tdp1-/-;hTDP1 cells + 20 nM CPT, ATP luminescence, 48 h; activity change, negative = growth inhibition: at 46.2 µM (top of the series) unless noted
Procedure, shortened: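 Chicken DT40 Tdp1-/- cells complemented with human TDP1, 400 cells/well, exposed to compounds plus 20 nM camptothecin for at least 48 h at 37 C; viability read as ATP content by CellTiter-Glo luminescence.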
On the % scale 0 is the no-effect control and ±100 the full control effect; potency means the concentration at half of the fitted maximal effect; tags describe the fitted curve by direction and shape.

| Compound | Potency | activity change, negative = growth inhibition |
| --- | --- | --- |
| CCn1ccnc1CN1CCCC(C(=O)c2cc(C)c(OC)c(C)c2)C1 (stereo not drawn) | inconclusive: 23.1 µM [inhibitor, single point] |  |
| Cc1cc(NC(=O)CCl)on1 | inconclusive: 4.11 µM [inhibitor, full curve] |  |
| CN1Cc2c(c(C#N)c(N)n(C)c2=S)CC1(C)C | inconclusive: 23.1 µM [inhibitor, single point] |  |
| CCCCC(=O)OCC(=O)[C@]1(O)Cc2c(O)c3c(c(O)c2[C@@H](O[C@H]2C[C@H](NC(=O)C(F)(F)F)[C@H](O)[C@H](C)O2)C1)C(=O)c1c(OC)cccc1C3=O | active: 1.5 µM |  |
| N#Cc1ccc(NC(=O)CN2CCN(C(=O)c3cccs3)CC2)cc1Cl | inconclusive: 23.1 µM [inhibitor, single point] |  |
| CCN(CC)P(=O)(Oc1ccccc1)Oc1ccccc1 | inconclusive: 13 µM [inhibitor, partial curve] |  |
| CC1(C)Cc2c(C#N)c(N3CCNCC3)nc(-c3ccco3)c2CS1 | active: 18.4 µM |  |
| C#CCN(C[C@@H]1[C@@H](OC(=O)Nc2c(C)noc2C)[C@@H](OC(=O)Nc2c(C)noc2C)Cn2c(=O)n(CCCCCC)c(=O)n21)S(=O)(=O)c1ccc(C)cc1 | active: 18.4 µM |  |
| CN(C)C1=NP(N(C)C)(N(C)C)=NC(c2ccccc2)=N1 |  | inactive: -15.6% |
| CCN(CC)C(=O)c1ccc(NC(=O)COc2ccc(-c3nn(C)c(=O)c4ccccc34)cc2)cc1 | active: 16.4 µM |  |
| CCCCCn1c(CN2CCN(C(=O)OCC)CC2)nc2c1c(=O)n(C)c(=O)n2C | inconclusive: 29.1 µM [inhibitor, partial curve] |  |
| NC(=O)OCCSc1nnc(-c2cccc(C(N)=S)c2)o1 | inconclusive: 23.1 µM [inhibitor, partial curve, poor fit] |  |
| CCOCCOC(C)=O |  | inactive: 6.09% [at 92.5 µM] |
| CCCCCCC(=O)O[C@H]1CC[C@H]2[C@@H]3CCc4cc(O)ccc4[C@H]3CC[C@]12C | inconclusive: 29.9 µM [inhibitor, single point] |  |
| CC1=C(C)[N+](=O)C2CCCCC2N1[O-] (stereo not drawn) | inconclusive: 0.651 µM [inhibitor, full curve, poor fit] |  |
| CCC(=O)[C@@H](C)[C@@H](O)[C@H](C)C[C@@H](C)C1OC(=O)C[C@@]2(O)CC=C(C)C(O2)C(C)=CCCC[C@H](O[C@H]2C[C@@H](OC(N)=O)[C@H](O)[C@@H](C)O2)C=C[C@H](C)C[C@H]1C (stereo partly drawn) | active: 0.461 µM |  |
| Cc1ccc(-c2nc3c(=O)n(C)c(=O)nc-3n(C)n2)cc1 | active: 0.631 µM |  |
| O=C(Cc1ccccc1F)N1CCN(CC(=O)N2CCCC2)CC1 |  | inactive: 17.1% |
| Cc1noc(C)c1CSc1nc2cc(S(=O)(=O)N3CCOCC3)ccc2o1 | inconclusive: 29.1 µM [inhibitor, single point] |  |
| Cc1cccc(NC(=O)C2CCCN(S(=O)(=O)c3ccc4c(c3)oc(=O)n4C)C2)c1 (stereo not drawn) | inconclusive: 20.6 µM [inhibitor, single point] |  |
| O=[N+]([O-])c1cc(F)c(N2CCCCC2)cc1Br |  | inactive: 13% |
| Clc1cccc(N2Cc3cc(N4CCOCC4)ccc3-n3nncc3C2)c1 | active: 18.4 µM |  |
| CCOC(=O)c1c(C)n(Cc2ccco2)c2ccc(O)cc12 |  | inactive: -25.5% |

| Compound | Potency | activity change, negative = growth inhibition |
| --- | --- | --- |
| O=C1NC(=O)N(c2ccccc2)C(=O)/C1=C\c1ccc([N+](=O)[O-])s1 | active: 20.6 µM |  |
| CCCSP(=O)(OCC)SCCC |  | inactive: 6.03% [at 92.5 µM] |
| C=CCOC(=O)COc1cc(C)cc2oc(=O)c3c(c12)CCC3 |  | inactive: -6.38% |
| CCN1CCN(c2cc(N3CCCC3)c([N+](=O)[O-])cc2F)CC1 | inconclusive: 29.1 µM [inhibitor, single point] |  |
| FC(F)(F)c1ccc2c(c1)ncn2C1CCN(Cc2nnnn2C2CCCCC2)CC1 | inconclusive: 23.1 µM [inhibitor, single point] |  |
| COC(=O)c1ccc(COC(=O)c2nn(C)c(=O)c3ccccc23)cc1 | inconclusive: 18.4 µM [inhibitor, single point] |  |
| CC(C)(CN)CC(=O)O |  | inactive: -13.4% |
| NCC(=O)c1ccc2ccccc2c1 |  | inactive: -5.8% |
| Cc1ccc(O)c(C(=O)c2cc(C(=O)NCCC(C)C)c(=O)n(CCC(C)C)c2)c1 | active: 23.1 µM |  |
| C[C@@H](CO)NC(=O)[C@@H]1C=C2c3cccc4[nH]cc(c34)C[C@H]2N(C)C1 | inconclusive: 33.5 µM [inhibitor, single point] |  |
| COc1cc(OC)c(OC)cc1CNCCc1ccc2c(c1)OCO2 |  | inconclusive: -30.1% [inhibitor] |
| S=C(Nc1ccccc1)Nc1ccccn1 | inconclusive: 29.1 µM [inhibitor, single point] |  |
| O=C(NC1CN2CCC1CC2)c1cc(Cl)c([N+](=O)[O-])c2nc[nH]c12 (stereo not drawn) | inconclusive: 25.9 µM [inhibitor, single point] |  |
| COC(=O)C1=C(c2ccccc2OCc2ccccc2)C[C@@H]2CC[C@H]1N2C | inconclusive: 29.1 µM [inhibitor, single point] |  |
| COC(=O)C1=C(c2cc3ccccc3o2)C[C@@H]2CC[C@H]1N2C(=O)NCCCOC(C)C | inconclusive: 29.1 µM [inhibitor, single point] |  |
| O=C(NCc1ccco1)c1ccc(Cn2c(=O)c3ccccc3n(Cc3cccc(F)c3)c2=O)cc1 | inconclusive: 29.1 µM [inhibitor, single point] |  |
| COC(=O)C1=C(c2ccc(OC(F)(F)F)cc2)C[C@@H]2CC[C@H]1N2C(=O)NCc1cc(C)oc1C(F)(F)F | inconclusive: 29.1 µM [inhibitor, single point] |  |
| COC(=O)C1=C(c2ccc(-c3ccccc3)c(F)c2)C[C@@H]2CC[C@H]1N2C(=O)N1CCOCC1 | active: 1.16 µM |  |
| O=c1c2ccccc2nc(/C=C/c2ccc(O)c(O)c2)n1-c1ccccc1 | inconclusive: 16.4 µM [inhibitor, single point] |  |
| CCC(C)NC(=O)CCC(=O)OC1O[C@H]2OC3(C)CC[C@H]4[C@H](C)CCC(C1C)C24OO3 (stereo partly drawn) | active: 0.206 µM |  |
| CCOC(=O)[C@]12Cc3cc(Cl)ccc3[C@H]1N(C1CCCCC1)C(=O)c1ccccc12 | active: 2.31 µM |  |
| OCC#CC[N+]1(CC#Cc2ccccc2)CCOCC1 |  | inactive: 5.54% |
| CN1C2CCC1CC(OC(c1ccccc1)c1ccccc1N)C2 (stereo not drawn) | inconclusive: 32.6 µM [inhibitor, single point] |  |

| Compound | Potency | activity change, negative = growth inhibition |
| --- | --- | --- |
| O=C(CSC1c2ccccc2-c2ccccc21)N/N=C/c1ccccc1O | active: 7.31 µM |  |
| CCO/N=C(\CC)C1=C(O)CC(c2c(C)cc(C)cc2C)CC1=O (stereo not drawn) | inconclusive: 68.6 µM [inhibitor, single point] |  |
| O=S(=O)(c1ccc(Cl)cc1)N1CCC(n2cnc3cc(C(F)(F)F)ccc32)CC1 | inconclusive: 29.1 µM [inhibitor, single point] |  |
| CCOC(=O)C1=C(C)OC(N)=C(C(=O)OC)C12C(=O)Nc1ccc(Br)cc12 (stereo not drawn) |  | inactive: -0.924% |
| COCCCn1c(N)c(C(=O)Nc2sc3c(c2C(=O)OC)CCCC3)c2nc3ccccc3nc21 | inconclusive: 29.1 µM [inhibitor, single point] |  |
| O=C1N[C@@H](Cc2ccccc2)C(=O)N2[C@H]3Nc4ccccc4[C@@]3([C@]34C[C@H]5C(=O)N[C@@H](Cc6ccccc6)C(=O)N5[C@H]3Nc3ccccc34)C[C@@H]12 | inconclusive: 18.4 µM [inhibitor, single point] |  |
| O=Cc1cn(Cc2cccc(F)c2)c2ccccc12 | inconclusive: 13 µM [inhibitor, partial curve] |  |
| CN1CCN(c2cc(N3CCNCC3)ccc2[N+](=O)[O-])CC1 | inconclusive: 29.1 µM [inhibitor, single point] |  |
| CC/C(=C\C=C\[C@@H]1C=C[C@@H]2CCC[C@H]2[C@@H]1C(=O)c1ccc[nH]1)[C@@H]1O[C@@H]([C@@H](C)C(=O)O)CC[C@@H]1C | active: 7.31 µM |  |
| NCCc1c[nH]c2ccccc12 | inactive and inconclusive: 29.1 µM [inhibitor, single point] |  |
| FC(F)(F)c1ccccc1CNCCc1c[nH]c2ccccc12 | inconclusive: 29.1 µM [inhibitor, single point] |  |
| O=C1NC(=O)C(Cc2cccs2)C(=O)N1 |  | inactive: -24.1% |
| COC(=O)c1ccccc1NC(=O)c1cccn(Cc2cccc(Cl)c2)c1=O | inconclusive: 23.1 µM [inhibitor, single point] |  |
| CC1(C)CC(=O)C(C=NCCN2CCN(C(=O)Cc3ccc(F)cc3)CC2)=C(O)C1 |  | inactive: 0.605% |
| ClCCN(CCCl)c1ccc(C=Nc2ccncc2)cc1 | inconclusive: 25.1 µM [inhibitor, single point] |  |
| N#Cc1c(Cl)nc(Cl)c2c1CCN(Cc1ccccc1)C2 | inconclusive: 18.4 µM [inhibitor, single point] |  |
| CC(C)(C)n1nnnc1C(C1CC1)N1CCC(n2c(=O)[nH]c3ccccc32)CC1 (stereo not drawn) | inconclusive: 29.1 µM [inhibitor, single point] |  |
| C=CCN1C(=O)NC(=O)/C(=C/c2ccc(OC)c(COc3ccc(NC(C)=O)cc3)c2)C1=O | active: 2.59 µM |  |
| Cc1cccc(N2C(=O)NC(=O)/C(=C\c3cnn(-c4ccccc4)c3)C2=O)c1 | inconclusive: 18.4 µM [inhibitor, single point] |  |
| Cc1cccc(NC(=O)c2cc3c(=O)n4ccccc4nc3n2C)c1C | active: 0.92 µM |  |
| COc1ccccc1CNc1nc(NCc2ccccc2SC)c2sccc2n1 | active: 6.51 µM |  |
| CC(=O)OCC(=O)[C@H]1CC[C@H]2[C@@H]3CC=C4C[C@@H](O)CC[C@]4(C)[C@H]3CC[C@]12C | inconclusive: 29.1 µM [inhibitor, single point] |  |

Source: PubChem BioAssay AID686979 (National Center for Advancing Translational Sciences (NCATS), 2013)
